{"source": "the antibiotic and cytotoxicity screens of Wong et al. (2023)", "note": "Some of the results follow.", "data": [{"tested_on": "HSkMC (human skeletal muscle cells)", "assay": "cytotoxicity call (relative viability < 0.9)", "conditions": "10 µM", "values": [{"smiles": "CCCCCCCCCc1ccc(OCCOCCOCCOCCOCCOCCOCCOCCOCCO)cc1", "cytotoxicity call": "inactive"}, {"smiles": "C[C@H](CO)N1C[C@H](C)[C@@H](CN(C)Cc2ccc(Cl)c(Cl)c2)Oc2ccc(NS(=O)(=O)c3ccc(F)cc3)cc2C1=O", "cytotoxicity call": "inactive"}, {"smiles": "COC(=O)c1cc(=O)nc2n1[C@H]1O[C@H](CO)[C@H](O)[C@H]1O2", "cytotoxicity call": "inactive"}, {"smiles": "OCc1cnccn1", "cytotoxicity call": "inactive"}, {"smiles": "C[C@@H]1CCCCO[C@@H](CN(C)C(=O)Nc2ccc3c(c2)OCO3)[C@H](C)CN([C@@H](C)CO)C(=O)c2cc(NC(=O)Nc3ccc(C(F)(F)F)cc3)ccc2O1", "cytotoxicity call": "inactive"}, {"smiles": "COc1ccc(C(N)=S)cn1", "cytotoxicity call": "inactive"}, {"smiles": "COc1cc2c(cc1OC)CN(C(=O)[C@H]1[C@@H]3C(=O)O[C@@H](c4ccccc4)[C@@H](c4ccccc4)N3[C@@H](c3ccc(O)cc3)[C@]13C(=O)Nc1ccc(C#CC4=CCCCC4)cc13)CC2", "cytotoxicity call": "inactive"}, {"smiles": "Cc1noc(C)c1S(=O)(=O)N(C)C[C@H]1Oc2ccc(NS(=O)(=O)c3cn(C)cn3)cc2C(=O)N([C@@H](C)CO)C[C@H]1C", "cytotoxicity call": "inactive"}, {"smiles": "CC(=O)ON1C(C)(C)C=C(C(N)=O)C1(C)C", "cytotoxicity call": "inactive"}, {"smiles": "C[C@H]1COC(=O)[C@H](NC(=O)OCC2c3ccccc3-c3ccccc32)CC=CC[C@@H](CC(=O)NCCO)C(=O)N1", "cytotoxicity call": "inactive"}, {"smiles": "C[C@@H]1CN([C@@H](C)CO)C(=O)c2cccc(NC(=O)Nc3cccc4ccccc34)c2O[C@H]1CN(C)S(=O)(=O)c1ccc(Cl)cc1", "cytotoxicity call": "inactive"}, {"smiles": "Cc1ccc2nc(CN)cn2c1", "cytotoxicity call": "inactive"}, {"smiles": "CC(C)NC(=O)N(C)C[C@@H]1Oc2ccc(NC(=O)CCC(F)(F)F)cc2C(=O)N([C@@H](C)CO)C[C@H]1C", "cytotoxicity call": "inactive"}, {"smiles": "CC1=NCCN1", "cytotoxicity call": "inactive"}, {"smiles": "CN(C)CCC(=O)N1CCNCC1", "cytotoxicity call": "inactive"}, {"smiles": "CC(C)NC(=O)N(C)C[C@H]1Oc2ccc(NS(=O)(=O)c3ccc(F)cc3)cc2C(=O)N([C@@H](C)CO)C[C@@H]1C", "cytotoxicity call": "inactive"}, {"smiles": "CCCN(C)C[C@H]1OCCCC[C@H](C)Oc2ccc(NC(=O)CCC(F)(F)F)cc2C(=O)N([C@H](C)CO)C[C@@H]1C", "cytotoxicity call": "inactive"}, {"smiles": "Cc1ccc(S(=O)(=O)N(C)C[C@@H]2OCCCC[C@@H](C)Oc3ccc(NC(=O)Nc4ccc(F)cc4)cc3C(=O)N([C@H](C)CO)C[C@H]2C)cc1", "cytotoxicity call": "inactive"}, {"smiles": "Cc1ccc(S(=O)(=O)N(C)C[C@H]2Oc3ccc(NC(=O)C4CC4)cc3CC(=O)N([C@H](C)CO)C[C@@H]2C)cc1", "cytotoxicity call": "inactive"}, {"smiles": "Cc1noc(C)c1S(=O)(=O)Nc1ccc2c(c1)CC(=O)N([C@@H](C)CO)C[C@@H](C)[C@@H](CN(C)S(=O)(=O)c1c(C)noc1C)O2", "cytotoxicity call": "inactive"}, {"smiles": "CC(C)NC(=O)Nc1cccc2c1O[C@@H](CN(C)S(=O)(=O)c1ccc(Cl)cc1)[C@H](C)CN([C@H](C)CO)C2=O", "cytotoxicity call": "inactive"}, {"smiles": "C[C@H]1CCCCO[C@H](CN(C)C(=O)NC2CCCCC2)[C@@H](C)CN([C@@H](C)CO)C(=O)c2cc(NC(=O)CCC(F)(F)F)ccc2O1", "cytotoxicity call": "inactive"}, {"smiles": "COc1cccc(S(=O)(=O)N2C[C@H](O)COC[C@H]3O[C@H](CC(=O)N4CCN(C)CC4)CC[C@@H]32)c1", "cytotoxicity call": "inactive"}, {"smiles": "C[C@H]1CN([C@@H](C)CO)C(=O)CCCn2cc(nn2)CO[C@H]1CN(C)C(=O)Nc1cccc(Oc2ccccn2)c1", "cytotoxicity call": "inactive"}, {"smiles": "C[C@H](CO)N1C[C@H](C)[C@@H](CN(C)Cc2ccc(C(=O)O)cc2)Oc2ccc(NS(=O)(=O)c3ccccc3)cc2CC1=O", "cytotoxicity call": "inactive"}, {"smiles": "C[C@H](CO)N1C[C@H](C)[C@H](CN(C)C(=O)c2ccc3c(c2)OCO3)Oc2ncc(C#CCN(C)C)cc2C1=O", "cytotoxicity call": "inactive"}, {"smiles": "O=C1c2ccccc2[C@@]2(Cc3ccccc3N(CC(F)(F)F)C2=O)[C@H](c2ccc(CO)cc2)N1Cc1ccccc1", "cytotoxicity call": "inactive"}, {"smiles": "CN1C(=O)c2cc(NC(=O)C3CCC3)ccc2OC[C@@H]2O[C@H](CC(=O)NCCc3ccncc3)CC[C@H]21", "cytotoxicity call": "inactive"}, {"smiles": "O=C(C[C@@H]1CC[C@H]2[C@@H](COC[C@@H](O)CN2C(=O)Nc2cccc(Cl)c2)O1)NCCCN1CCOCC1", "cytotoxicity call": "inactive"}, {"smiles": "Cn1c(=O)c2[nH]c(Br)nc2n(C)c1=O", "cytotoxicity call": "inactive"}, {"smiles": "O=C(C[C@@H]1CC[C@@H]2[C@H](COC[C@H](O)CN2S(=O)(=O)c2ccccc2)O1)N[C@H]1CCN(Cc2ccccc2)C1", "cytotoxicity call": "inactive"}, {"smiles": "CC1(C)C=Cc2cc(C#N)ccc2O1", "cytotoxicity call": "inactive"}, {"smiles": "C[C@@H]1CCCCO[C@H](CN(C)S(=O)(=O)c2ccccc2)[C@@H](C)CN([C@H](C)CO)C(=O)c2cc(NC(=O)C3CCCCC3)ccc2O1", "cytotoxicity call": "inactive"}]}]}
